Data reported in PubChem BioAssay AID588855 (National Center for Advancing Translational Sciences (NCATS), 2011).
The campaign covered roughly 410,000 compounds. About 5,000 (1.2%) were called active. The inconclusive results got no clear call from the source; some entries with a clear call stand among them for comparison. Calls follow the shape of the dose curve; as a rule, active = well fitted inhibition curve with a large enough effect; inconclusive = small, poorly fitted or top-dose-only effect; inactive = no such curve, though single readings can be large or run the other way. Where the call is inconclusive, the potency comes from a doubtful curve fit.
% is scaled to controls: 0 for no effect and ±100 for the full control effect; potency is read from the fitted curve at half-maximal effect; tags tell the direction and shape of the fitted curve.

Experiment: qHTS for Inhibitors of TGF-b; also: nearly all actives have a fitted effect of over 65% in size
Settings: HepG2 CAGA-GFP TGF-b/SMAD3 reporter, GFP fluorescence, 18 h, TGF-beta stimulated, 500 pg/mL final; series mostly up to 46.1 µM; activity, negative = inhibition: at the top concentration
Procedure, shortened: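 GFP signal (ex488/em500-530) from TGF-beta-stimulated HEPG2 CAGA-GFP cells, 500 pg/mL final, 18 h at 37 degrees C in DMEM plus 1% FBS, normalized to unstimulated and DMSO-stimulated controls.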
For `COc1ccc(NC(=S)Nc2cccnc2)c(OC)c1`, the Potency was inconclusive: 17.8 µM [inhibitor, single point].
For `COCCNC(=O)C(c1ccccc1C)N(C(=O)Cn1nnc2ccccc21)c1cccnc1` (stereo not given), the “activity, negative = inhibition” value was inactive: 29.5%.
With `CCC(=O)NC(c1cccs1)c1cc(Cl)c2ccccc2c1O` (stereo not given) the Potency was inconclusive: 35.5 µM [inhibitor, single point].
With `CN(Cc1ccccc1)c1nc(N)c([N+](=O)[O-])c(NCc2ccccc2)n1` the Potency was inconclusive: 35.5 µM [inhibitor, single point].
In the case of `CCN(CC)S(=O)(=O)c1ccc(C(=O)NCc2n[nH]c(=S)n2Cc2ccccc2)cc1`, the “activity, negative = inhibition” value is reported as inactive: -13.7%.
In the case of `Cc1oc2ccc(O)cc2c1C(=O)c1ccc(Br)cc1`, the Potency is reported as inconclusive: 15.8 µM [inhibitor, single point].
In the case of `COc1cccc(-c2cc(C(=O)NCc3cccs3)no2)c1`, the “activity, negative = inhibition” value is reported as inactive: 3.02%.
With `Cc1sc2nc(CN3CCOCC3)nc(N3CCN(S(=O)(=O)c4ccccc4)CC3)c2c1C` the “activity, negative = inhibition” value was inactive: -8.95%.
With `COc1ccc(-c2ccc(CN3C(C(C)C)C(=O)N(Cc4cn(CC5CCCCC5)nn4)CCS3(=O)=O)cc2)cc1` (stereo not given) the Potency was inconclusive: 6.31 µM [inhibitor, single point].
In the case of `CC(=O)N1CCc2cc(Br)cc(S(=O)(=O)N3CCCCCC3)c21`, the “activity, negative = inhibition” value is reported as inactive: -1.47%.
For `COc1cc(C(=O)/C=C/c2cccnc2)ccc1O`, the Potency was inconclusive: 22.4 µM [inhibitor, single point].
With `Cn1c2ccccc2c2c(C(=O)N3CCN(c4cccc(Cl)c4)CC3)cn(C3CCCCC3)c(=O)c21` the Potency was inconclusive: 12.6 µM [inhibitor, partial curve].
In the case of `COc1ccc(OC)c(CCNC(=O)c2cc3cccc4c3n2CC(C)S4)c1` (stereo not given), the “activity, negative = inhibition” value is reported as inactive: 0%.
In the case of `CCNS(=O)(=O)c1ccc2nc(NC(=O)/C=C/c3cc(OC)c(OC)c(OC)c3)sc2c1`, the Potency is reported as inconclusive: 3.98 µM [inhibitor, single point].
In the case of `Cc1ccc(C(=O)N/N=C/c2ccc(N3CCOCC3)cc2)c(C)c1`, the Potency is reported as inconclusive: 6.31 µM [inhibitor, single point].
With `O=C1C(=O)N(C2CCN(S(=O)(=O)c3ccccc3)CC2)CCN1Cc1ccccc1` the “activity, negative = inhibition” value was inactive: 1.61%.
For `CC(=O)c1cc(C#N)c(Oc2ccccc2)nc1C`, the “activity, negative = inhibition” value was inactive: 0.819%.
For `O=S(=O)(Nc1nc(-c2sccc2Cl)cs1)c1cc(Cl)ccc1Cl`, the Potency was active: 11.2 µM.
With `COc1ccc(CN2CCC2(C)C(=O)NCCc2c[nH]c3ccccc23)c2ccccc12` (stereo not given) the Potency was inconclusive: 35.5 µM [inhibitor, single point].
For `CCOc1ccc(CCN2C(=S)N([C@@H](Cc3ccccc3)CN3CCC[C@@H]3CN3C(=S)NC[C@@H]3Cc3ccc(O)cc3)C[C@@H]2CC(C)C)cc1`, the Potency was inconclusive: 15.8 µM [inhibitor, single point].
With `CCC1CN(C(=O)NCc2ccccc2)c2cc(Cl)ccc2O1` (stereo not given) the Potency was inconclusive: 35.5 µM [inhibitor, single point].
With `COc1ccc(CNC(=O)Nc2cccc(C(F)(F)F)c2)cc1OC` the “activity, negative = inhibition” value was inactive: 8.68%.
In the case of `Cc1cc(C(=O)CCC(=O)N2CCN(S(=O)(=O)c3ccccc3)CC2)c(C)s1`, the “activity, negative = inhibition” value is reported as inactive: 0.947%.
With `CCOc1ccc(N(CC(=O)NC2CCCC2)C(=O)CSc2nnc(COc3ccccc3)o2)cc1` the “activity, negative = inhibition” value was inactive: -1.63%.
For `CCOc1ccc2[nH]c3c(N4CCc5ccccc5C4)ncnc3c2c1`, the Potency was inconclusive: 35.5 µM [inhibitor, partial curve, poor fit].
In the case of `Cc1ccc(C(C)C)c(OCCCN2CCc3ccccc3C2)c1`, the Potency is reported as inconclusive: 25.1 µM [inhibitor, single point].
In the case of `O=C(CCCSc1ccccc1)Nc1ccc(Cl)c(S(=O)(=O)N2CCOCC2)c1`, the Potency is reported as inconclusive: 11.2 µM [inhibitor, partial curve].
With `COc1ccc(S(=O)(=O)NCCc2nnc3ccc(SCC(=O)Nc4cc(C)cc(C)c4)nn23)cc1` the “activity, negative = inhibition” value was inactive: 55.3%.
With `CC(C)(C)OC(=O)N1CCC(c2c(C(=O)Nc3ccc4c(c3)OCCO4)cnn2-c2ccc(F)cc2F)CC1` the Potency was inconclusive: 25.1 µM [inhibitor, partial curve, poor fit].
With `Cn1nc(-c2ccccc2)c(-c2nc(-c3cccc(C(F)(F)F)c3)no2)c1Cl` the “activity, negative = inhibition” value was inactive: 1.74%.
In the case of `COc1ccc(Nc2nc(S(=O)(=O)c3ccc(C)cc3)c(Cl)s2)cc1`, the Potency is reported as active: 11.2 µM.
With `COc1ccc(S(=O)(=O)N2CCCCC2)cc1NC(=O)C1CC1` the “activity, negative = inhibition” value was inactive: 22.7%.
With `COc1ccc(CCNC(=O)CSc2nnc3ccccn23)cc1` the Potency was active: 0.447 µM.
In the case of `CC(=O)NNC(=O)CSc1nnc(-c2ccccc2)c(-c2ccccc2)n1`, the “activity, negative = inhibition” value is reported as inactive: 9.78%.
For `COc1cccc(Nc2cc(C)nc3ccccc23)c1`, the Potency was inconclusive: 35.5 µM [inhibitor, single point].
With `CCN1CCN(C(=S)Nc2ccc3nc(N4CCN(CC)CC4)cc(C)c3c2)CC1` the Potency was inconclusive: 35.5 µM [inhibitor, single point].
In the case of `Cc1c(Cl)cccc1NC(=O)CSc1ccc(-c2ccccn2)nn1`, the Potency is reported as inconclusive: 6.31 µM [inhibitor, single point].
In the case of `CCN1CCN(c2nc3c(c(=O)n(C)c(=O)n3C)n2CCSc2ncccn2)CC1`, the Potency is reported as inconclusive: 35.5 µM [inhibitor, single point].
For `Cc1csc2nc(O)c(C(=O)NC3CCCCC3)c(=O)n12`, the Potency was inconclusive: 35.5 µM [inhibitor, single point].
For `O=C(C1=C[C@H](c2csc3ccccc23)C[C@H](OCCCCO)O1)N1CCN(Cc2ccc3c(c2)OCO3)CC1`, the Potency was inconclusive: 22.4 µM [inhibitor, single point].
For `CCCC/C=C/[C@H](c1ccccc1)[C@H](CO)Cc1cccnc1`, the Potency was inconclusive: 22.4 µM [inhibitor, single point].
In the case of `COc1cc(C2OC(=O)c3ccccc3S2)cc(OC)c1OC` (stereo not given), the “activity, negative = inhibition” value is reported as inactive: 8.16%.
With `Cc1ccc2nsnc2c1NC(=O)c1ccc(-c2cc(Cl)ccc2Cl)o1` the Potency was inconclusive: 5.62 µM [inhibitor, partial curve].
In the case of `Cc1ccc(Cc2c(-c3ccc(F)cc3)nc3cc(C)ccn23)cc1`, the Potency is reported as inconclusive: 22.4 µM [inhibitor, single point].
With `COc1ccc(-c2csc(NC(=O)c3cccc(S(=O)(=O)N4CCN(C)CC4)c3)n2)cc1` the Potency was inconclusive: 35.5 µM [inhibitor, single point].
For `CCOC(=O)CSC1=NC(=O)CS1`, the “activity, negative = inhibition” value was inactive: 9%.
In the case of `Cc1nc([N+](=O)[O-])cn1Cc1cccc2ccccc12`, the “activity, negative = inhibition” value is reported as inactive: 2.42%.
In the case of `c1ccc(CCNc2ncnc3scc(C4COc5ccccc5O4)c23)cc1` (stereo not given), the Potency is reported as active: 15.8 µM.
With `CCOc1cc(CNC(=O)C2CCN(c3nc4ccccc4[nH]3)CC2)cc(OCC)c1OCC` the “activity, negative = inhibition” value was inactive: 0%.
With `Cc1nc2c(-c3ccc(F)cc3)c(C)nn2c(C)c1CCC(=O)NC(C)CCc1ccco1` (stereo not given) the Potency was inconclusive: 35.5 µM [inhibitor, single point].
In the case of `O=C(CN1CCSC1=O)N1CCN(S(=O)(=O)c2ccc(Cl)cc2)CC1`, the Potency is reported as inconclusive: 35.5 µM [inhibitor, single point].
For `CN1CCN(Cc2c(O)ccc3cc(-c4ccc(Cl)cc4)c(=O)oc23)CC1`, the Potency was inconclusive: 2 µM [inhibitor, full curve, poor fit].
In the case of `O=C(NCc1ccc(F)cc1)c1cc(-c2ccncc2)nc2ccccc12`, the “activity, negative = inhibition” value is reported as inactive: -12.5%.
In the case of `CC(NS(=O)(=O)c1ccc(F)cc1)C(=O)Nc1ccc2c(c1)OCCO2` (stereo not given), the “activity, negative = inhibition” value is reported as inactive: 3.31%.
For `CCc1cccc(NC(=O)CCc2c(C)nc3c(-c4ccccc4)c(C)nn3c2C)c1`, the Potency was inconclusive: 11.2 µM [inhibitor, partial curve, poor fit].
With `Cc1cc(C)n2ncc(C(=O)NCc3ccc(Cl)cc3)c2n1` the “activity, negative = inhibition” value was inactive: -2.03%.
For `COc1ccc(N2CCN(C(=O)CN(c3ccccc3)S(=O)(=O)c3ccc(OC)cc3)CC2)cc1`, the “activity, negative = inhibition” value was inactive: -18.9%.
In the case of `O=C1NC(Nc2nccs2)(C(F)(F)F)C(=O)N1CCc1ccccc1` (stereo not given), the “activity, negative = inhibition” value is reported as inactive: -29.6%.
In the case of `CN1CCN(/N=C/c2c3ccccc3c(Cl)c3ccccc23)CC1`, the Potency is reported as inconclusive: 35.5 µM [inhibitor, single point].
In the case of `Cc1cccc(C(=O)NNC(=O)c2ccco2)c1O`, the “activity, negative = inhibition” value is reported as inactive: 2.14%.
With `Cn1c(NCc2ccccc2F)nc2cc(-c3ccccc3)sc2c1=O` the Potency was inconclusive: 5.62 µM [inhibitor, partial curve].
For `Cc1cc(C)c(S(=O)(=O)N2CCCOC2CNC(=O)C(=O)NCCc2c[nH]c3ccccc23)c(C)c1` (stereo not given), the Potency was inconclusive: 35.5 µM [inhibitor, single point].
With `CN(CCc1ccccc1)c1ccc([N+](=O)[O-])cn1` the Potency was inconclusive: 35.5 µM [inhibitor, single point].
In the case of `COc1ccc(CCC(=O)Nc2nc3ccccc3[nH]2)cc1OC`, the Potency is reported as inconclusive: 0.708 µM [inhibitor, full curve, poor fit].
With `CCc1ccccc1NS(=O)(=O)c1ccc2c(c1)CCCN2C(=O)C1CCC1` the Potency was inconclusive: 2.51 µM [inhibitor, full curve, poor fit].
In the case of `Nc1ccc2c(c1)C(=O)N(c1ccc3ccccc3c1)C2=O`, the “activity, negative = inhibition” value is reported as inactive: -4.35%.
With `CSc1cccc(NC(=O)CN(Cc2ccc(Cl)cc2)S(C)(=O)=O)c1` the “activity, negative = inhibition” value was inactive: -22.8%.
With `COc1ccc(NC(=O)CN2CCN(Cc3ccccc3Cl)S2(=O)=O)cc1Cl` the Potency was inconclusive: 0.199 µM [inhibitor, full curve, poor fit].
For `CN1C[C@@H]2[C@@H]3C(=O)N(Cc4ccccc4)C(=O)[C@@H]3[C@](Cc3ccccc3)(C1=O)N2C(=O)c1ccc(C(C)(C)C)cc1`, the Potency was inconclusive: 31.6 µM [inhibitor, partial curve, poor fit].
For `Cc1cc(NC(=O)NC(=O)c2ccccc2NC(=O)C(C)N)ccc1Oc1ncc(Br)cn1` (stereo not given), the Potency was inconclusive: 0.447 µM [inhibitor, full curve, poor fit].
